# Article PMC4336329 (PLoS ONE, 2015)
# In all, about 310,000 compounds went through this assay and about 14,000 (4.5%) showed an effect of 50% or more. Effects have a minus sign here. The list shows a part of the results.
# Target: human ether-à-go-go-related gene (hERG) potassium channel (human, UniProt Q12809)
# Test: primary screen, population patch clamp on CHO cells stably expressing hERG
# 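Note: peak tail current of the secondary pulse compared with the same well before compound.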
# human ether-à-go-go-related gene (hERG) potassium channel, sequence (Q12809 whole entry, looked up): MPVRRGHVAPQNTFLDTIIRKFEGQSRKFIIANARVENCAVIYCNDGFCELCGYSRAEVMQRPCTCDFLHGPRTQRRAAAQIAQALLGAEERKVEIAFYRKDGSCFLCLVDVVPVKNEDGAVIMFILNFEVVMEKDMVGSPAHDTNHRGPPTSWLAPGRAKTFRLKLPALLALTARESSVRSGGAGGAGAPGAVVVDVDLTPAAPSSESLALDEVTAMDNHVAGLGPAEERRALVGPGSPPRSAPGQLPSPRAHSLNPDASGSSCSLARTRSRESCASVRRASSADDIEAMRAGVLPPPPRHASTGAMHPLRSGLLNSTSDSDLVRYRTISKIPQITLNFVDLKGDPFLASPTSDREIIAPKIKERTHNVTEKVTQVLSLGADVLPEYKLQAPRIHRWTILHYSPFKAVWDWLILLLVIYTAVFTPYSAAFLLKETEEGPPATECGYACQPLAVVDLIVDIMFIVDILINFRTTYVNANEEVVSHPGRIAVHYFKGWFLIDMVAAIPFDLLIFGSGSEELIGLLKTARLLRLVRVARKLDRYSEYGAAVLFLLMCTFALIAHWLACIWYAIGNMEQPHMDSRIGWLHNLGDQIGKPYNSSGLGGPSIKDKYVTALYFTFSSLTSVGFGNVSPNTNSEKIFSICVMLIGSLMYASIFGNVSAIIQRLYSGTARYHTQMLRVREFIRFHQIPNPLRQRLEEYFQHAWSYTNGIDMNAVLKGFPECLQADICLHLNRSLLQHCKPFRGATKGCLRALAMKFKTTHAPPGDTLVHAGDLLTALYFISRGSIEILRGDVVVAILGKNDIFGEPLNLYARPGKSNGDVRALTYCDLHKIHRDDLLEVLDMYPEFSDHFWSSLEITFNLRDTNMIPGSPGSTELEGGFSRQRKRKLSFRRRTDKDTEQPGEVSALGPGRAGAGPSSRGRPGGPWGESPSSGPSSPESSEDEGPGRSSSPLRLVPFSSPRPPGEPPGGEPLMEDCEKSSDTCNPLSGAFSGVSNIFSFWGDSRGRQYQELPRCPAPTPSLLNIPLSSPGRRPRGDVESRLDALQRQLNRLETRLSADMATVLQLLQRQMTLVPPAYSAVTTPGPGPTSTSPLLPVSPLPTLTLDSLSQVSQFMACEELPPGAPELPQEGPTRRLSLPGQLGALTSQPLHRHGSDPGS
row,Structure (SMILES),"hERG current change (%, negative = inhibition) at 10uM [%]"
1,O=C(c1ccc(-n2cnnn2)cc1)N1CCCCC1,-24.1
2,COc1cccc2sc(NNC(=O)C3=COCCO3)nc12,1.61
3,CCC1Oc2ccc(C)cc2N(CC(=O)NCCc2ccc(OC)c(OC)c2)C1=O (centres unmarked),-14.6
4,CCN(CC)S(=O)(=O)c1ccc(N2CCOCC2)c(NC(=S)NC(=O)c2ccco2)c1,-66.5
5,Cc1n[nH]c(=O)nc1NCCc1ccccc1,34.4
6,Cc1ccccc1-c1nsc(SCC(=O)c2ccc(Cl)cc2)n1,7.5
7,COc1cc2[nH]c(C(=O)N(C)Cc3ccccc3)cc2c(OC)c1OC,-28.6
8,Cc1ccc(NC(=S)N(C)Cc2cn(C)c3ccccc23)cc1,-4.74
9,Cn1c(=O)c2c(C(=O)O)cc(-c3ccccc3)nc2n(Cc2ccccc2)c1=O,20.5
10,O=C(NCc1ccc(Cl)cc1)c1ccncc1,-1.32
11,CCC(C)NC(=O)C1CCN(S(=O)(=O)N2CCC3(CC2)OCCO3)CC1 (centres unmarked),37.2
12,O=C(Cc1csc(N2CCOCC2)n1)N/N=C/c1cccc(O)c1,-5.11
13,C/C(CC(=O)NCCN1CCOCC1)=N\NC(=O)c1ccncc1,14
14,Cc1cc(S(=O)(=O)Nc2cccc([N+](=O)[O-])c2)c(C)s1,2.03
15,CC1CC(C)CN(S(=O)(=O)N2CCC(C(=O)NCCC3=CCCCC3)CC2)C1 (centres unmarked),7.18
16,COc1ccc(CN(C)C(=O)Cc2ccc(OC)c(S(=O)(=O)N3CCOCC3)c2)cc1OC,-3.41
17,C/C(=N\N1CCN(C)CC1)c1ccc(OC(F)F)cc1,9.82
18,COc1cccc(/C=C/c2ccc3cccc(O)c3n2)c1OC,21.8
19,C=CCN1C(=O)CSC1=Nc1cccc(O)c1,-4.23
20,O=C(OCC(=O)N1CCCC1)c1cc(Br)ccc1Cl,12.7
21,Nc1ccc(O)cc1C(=O)OCC(=O)C12CC3CC(CC(C3)C1)C2,-5.05
22,CCCCCCc1ccc(N2C[C@H](CCCCC)[C@@H](CC(=O)NCc3ccccc3)C2=O)cc1,-1.8
23,COc1ccc(C(=O)NC2CCN(CC(=O)NCc3ccccc3)CC2)cc1,-24.4

row,Structure (SMILES),"hERG current change (%, negative = inhibition) at 10uM [%]"
1,CCOC(=O)C1CCN(Cc2cc(Cl)c3ccccc3c2O)CC1,10.2
2,Cc1ccc(NC2=NCC(=O)N2C2CCCC2)cc1.Cl,14.7
3,COc1ccc(C(O)(CCC(C)C)C(CN2CCOCC2)c2ccc(Cl)cc2)cc1.Cl (centres unmarked),0.459
4,Cc1ccc(OCC(=O)Nc2ccncc2)cc1,2.13
5,CCOc1cc(C(=S)N2CCOCC2)ccc1O,9.47
6,O=C(Nc1ccn(Cc2c(F)c(F)c(F)c(F)c2F)n1)c1ccc(COc2ccccc2Cl)cc1,11.7
7,CCC(C)c1ccc(O)c(/C=N/O)c1 (centres unmarked),12.2
8,CC12CC(NC(=O)N1c1cccc(C(=O)N3CCN(c4ccccc4F)CC3)c1)c1ccccc1O2 (centres unmarked),-6.74
9,O=C(CN1C2CCCC1CC(NC(=O)c1ccco1)C2)Nc1ccccc1 (centres unmarked),-45.2
10,Cc1ccc(C(=O)Nc2ncccc2O)cc1S(=O)(=O)N1CCCCC1,-14.3
11,COc1c(C(=O)Nc2ccc(CN3CCOCC3)cc2)cc2ccccc2c1Br,4.81
12,CCC(=O)c1ccc(OCC(=O)Nc2ccccc2C(=O)NC2CC2)cc1,-6.53
13,COc1ccc(CCN(C)C(=O)CSc2nnc(-c3ccco3)o2)cc1OC,-21.3
14,CC1Cc2ccccc2N1C(=O)COC(=O)c1ccc(N(C)C)cc1 (centres unmarked),13.4
15,Cc1cc(NC(=O)C23CC4CC(CC(C4)C2)C3)n[nH]1,-0.917
16,COc1cc(/C=N/n2cnc3scc(-c4cccs4)c3c2=O)cc(OC)c1OC,-9.89
17,O=S(=O)(NCC1CCCO1)c1cnc(Cl)c(Cl)c1 (centres unmarked),-2.72
18,CC1CCC2C(=O)N(c3ccc(S(=O)(=O)c4ccccc4)cc3)C(=O)C2C1 (centres unmarked),9.01
19,Cc1nc(-c2noc(-c3ccc(Cl)cc3)n2)c(C(F)(F)F)o1,28.2
20,CC(=O)C1=C(NC(=O)c2ccc(C(F)(F)F)cc2)C[C@@H]2[C@H]1C2(C)C,5.78
21,O=C(N/N=C/c1ccccc1F)c1cccc2ccccc12,9.79
22,COC(=O)c1ccc(S(=O)(=O)N(Cc2ccccc2)Cc2ccccc2)n1C,10.8
23,Cc1cccc(-n2ncc3c(NCCN4CCOCC4)ncnc32)c1,-28.7

row,Structure (SMILES),"hERG current change (%, negative = inhibition) at 10uM [%]"
1,O=c1[nH]c(=O)n(Cc2ccco2)c(O)c1C=NC1CCN(Cc2ccccc2)CC1,-59.2
2,COc1ccc(N(CC(=O)N2CCCCC2)S(=O)(=O)c2c(C)nn(C)c2C)cc1,4.36
3,COc1ccc(C(=O)/C=C2/C(=O)Nc3ccccc32)cc1OC,11.1
4,COc1ccc2nc(C)cc(SCC(=O)N/N=C/c3cccc4ccccc34)c2c1,5.42
5,O=C(NNc1nc(-c2ccccc2)cs1)c1ccco1,-5.46
6,COC(=O)CSc1ccc2nnc(CCNS(=O)(=O)c3ccc(C)cc3)n2n1,11.9
7,C/C(=N\NC(=O)CSc1nc(C)cc(C)n1)c1cccc([N+](=O)[O-])c1,19.9
8,Cc1cccn2c(=O)c3cc(S(=O)(=O)c4ccc(F)cc4)c(=N)n(Cc4ccco4)c3nc12,-34.8
9,CC(C)(C)C1CCc2c(sc3nc(SCC(N)=O)nc(N)c23)C1 (centres unmarked),3.74
10,O=C(CC1CCCCC1)NCc1ccc(F)cc1,15.2
11,Cl.c1ccc2c(c1)CCCc1cc(NCCN3CCOCC3)nnc1-2,-16.3
12,O=C(Nc1ccc(Br)cc1)C1C2C=CC3(O2)C1C(=O)N(CCN1CCOCC1)C3C(=O)NC1CCCCC1 (centres unmarked),-3.6
13,Cc1ccc(C(=O)OCC(=O)NC(=O)Cc2ccccc2)c(O)c1,21.9
14,CCOc1ccc(C(=O)Nc2nnn(CC)n2)cc1,4.01
15,CCC(C)(C(=O)NC1CCCC1)N(C(=O)c1cnccn1)c1c(C)n(C)n(-c2ccccc2)c1=O (centres unmarked),-2.47
16,CCOC(=O)c1c(-n2c(C)cc(C=C3C(=O)NC(=O)NC3=O)c2C)sc2c1CCCC2,2.5
17,O=CNc1ccccc1,14.6
18,CCOC(=O)CON1C(=O)C(C)(C)N(OCC(=O)OCC)C(=O)C1(C)C,21.1
19,O=C1COc2ccc(C(=O)c3ccccc3)cc2CN1,-4.36
20,CC1(c2ccccc2)CC(c2ccccc2)=Nc2nonc2N1 (centres unmarked),-20.6
21,COc1ccc(-c2noc3c2-c2nc(-c4ccccc4F)sc2CC3)cc1,-12.8
22,CCN1C(=O)N(S(=O)(=O)c2ccc(C)cc2)[C@@H](c2ccccc2)C(C(=O)OC)=C1C,6.86
23,CS(=O)(=O)Nc1cccc(C2=NN(C(=O)c3cccc(F)c3)C(c3cccs3)C2)c1 (centres unmarked),3.75

row,Structure (SMILES),"hERG current change (%, negative = inhibition) at 10uM [%]"
1,O=[N+]([O-])c1ccc2c(c1)nc(CO)n2Cc1ccccc1,5.82
2,Cc1nc(C)n(CC(O)COc2ccc3ccccc3c2)n1 (centres unmarked),-5.58
3,O=c1c2ccccc2[nH]c(=S)n1CCCN1CCOCC1,8.73
4,Cc1ccc(C(=O)NCC(=O)NC2CCCCCC2)cc1,8.54
5,CC1CC(C)CN(c2nc(N(C)c3ccccc3)nc(N)c2[N+](=O)[O-])C1 (centres unmarked),-5.52
6,COc1ccccc1-n1cnc2cc(NC(C)=O)ccc21,15.6
7,O=C1CCC(=O)N1CN(C(=O)c1ccco1)c1ccccc1,19.4
8,COCCn1c(-c2ccc(OC)cc2)nc2ccccc21,-0.766
9,COc1ccc(NC(=O)CSc2nnc(N)n2CC(=O)Nc2ccc(OC)cc2)cc1,11.1
10,N/C(=N\N=C\c1ccc2c(c1)OCO2)SC1CC(=O)N(c2ccc(C(=O)O)cc2)C1=O (centres unmarked),15.1
11,O=C(N/N=C/c1ccc(Cl)cc1Cl)c1ccc(-n2cnnn2)cc1,9.94
12,COc1ccc(S(=O)(=O)N(C)C)cc1NCC(=O)Nc1ccc(F)cc1F,-19.1
13,CN(c1ccccc1)S(=O)(=O)c1ccc(C(=O)NCc2cccs2)cc1,-10.6
14,O=C(NCCC(=O)N1CCCC1)c1ccccc1Cl,22
15,CNS(=O)(=O)c1ccc2c(c1)oc(=O)c1cc(S(=O)(=O)NC)ccc12,20.1
16,O=C(CNC(=O)c1cccc(Br)c1)NCCc1nc2ccccc2[nH]1,5.59
17,CCC1(CC)NC(=O)N(CC(=O)OCC(=O)Nc2ccccc2[N+](=O)[O-])C1=O,3
18,COc1ccc(S(=O)(=O)N2CCN(c3ccc(F)cc3)CC2)cc1OC,-1.24
19,Cc1ccc(/C=N/NC(=O)Cc2cccn2C)cc1,-1.75
20,COc1cc([N+](=O)[O-])ccc1NC(=O)C1CCCN(S(C)(=O)=O)C1 (centres unmarked),-9.96
